Experimental data from patent publication US20220089709A1 (HEFEI LIFEON PHARMACEUTICAL, published 2022).

What was measured:
[1] = target: T1, FN-789 (containing FN-7, FN-8 and FN-9) (human, UniProt P02751-1 1173-1446, limits assumed); test: ELISA, antigen coated, HRP-labelled rabbit anti-human IgG
T1 construct: domain: FN-7, FN-8 and FN-9; Expressed and purified 'in the same manner' as ED-B (E. coli, C-terminal six-histidine tag implied)

[2] = target: T2, FN-789 expressed across the membrane of CHO-K1 cells (human, UniProt P02751-1 1173-1446); test: immunofluorescence microscopy, FITC-labelled DE2-Fc on CHO-789 cells
T2 construct: domain: FN-7, FN-8 and FN-9; ED-B negative; also called CHO-789 cells

binding result [1]: no binding | binding result [2]: no binding (tested: 50 ng/µl)
B1: DE2-Fc (Fc fusion)
chain: EVQLLESGGGLVQPGGSLRLSCAASGFTFSSYAMSWVRQAPGKGLEWVSRISPSGSSTYYADSVKGRFTISRDNSKNTLYLQMNSLRAEDTAVYYCARRMSYFDYWGQGTLVTVSSGGGGSGGGGSGGGGSSQSALTQPASVSGSPGQSITISCSGDSLGIFRSGMVSWYQQHPGKAPKLMIYLPTSRPSGVSNRFSGSKSGNTASLTISGLQAEDEADYYCQSWDGRQPVFGGGTKLTVLGAAA[omitted - human IgG1 Fc]
notes: also called DE2 antibody; DE2 single-chain antibody
